{
  "source": "PubChem BioAssay AID2546",
  "about": "(National Center for Advancing Translational Sciences (NCATS), 2010)",
  "note": "In all, about 310,000 compounds went through this assay and about 11,000 (3.5%) were called active. Inconclusive means that the source gave no clear call. Such entries were picked first, then a sample of the others. Calls follow the shape of the dose curve; as a rule, active = well fitted inhibition curve with a large enough effect; inconclusive = small, poorly fitted or top-dose-only effect, or effect the other way; inactive = flat fitted curve, though single readings scatter. Potencies of inconclusive entries are left out as doubtful fits. Potency is read from the fitted curve at half-maximal effect; tags tell the direction and shape of the fitted curve.",
  "data": [
    {"assay": "VP16 counterscreen qHTS for inhibitors of ROR gamma transcriptional activity;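 also: Gal4-VP16 expression switched on by copper sulfate through the metallothionein promoter; nearly all actives have a fitted effect of over 50% in size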", "details": "Drosophila S2 Gal4-VP16 UAS-luciferase, luminescence, 20 h; series mostly up to 53.6 µM", "values": [
      {"smiles": "CNc1cc(C)nc(-n2nc(C)cc2C)n1", "Potency": "active: 2.51 µM"},
      {"smiles": "CC(C)(C)n1cnnc1Sc1ccc([N+](=O)[O-])cn1", "Potency": "inconclusive [activator, partial curve]"},
      {"smiles": "C/C(=N/Nc1nc(C)c(C)s1)c1cccc([N+](=O)[O-])c1", "Potency": "inconclusive [inhibitor, single point]"},
      {"smiles": "CCOc1ccc(NC(=O)C2CCN(C(=O)NCc3ccccc3)CC2)cc1", "Potency": "inactive"},
      {"smiles": "Cc1ccc(N=C2NC(=O)S/C2=C\\c2ccco2)cc1", "Potency": "inconclusive [inhibitor, single point]"},
      {"smiles": "CCc1cccc2c(=O)c(C(=O)N3CCCCCC3)c[nH]c12", "Potency": "inactive"},
      {"smiles": "O=C(CC1(O)C(=O)Nc2cc(Cl)cc(Cl)c21)c1ccncc1", "note": "(stereo unspecified)", "Potency": "inactive"},
      {"smiles": "Cc1cc(C)n(-c2nc3ccccc3c(=O)n2OCC(=O)OCc2ccccc2)n1", "Potency": "active: 2.51 µM"},
      {"smiles": "COc1cccc(NC(=O)Nc2nc(SC)ns2)c1", "Potency": "inconclusive [inhibitor, partial curve]"},
      {"smiles": "CC(C)C(C(=O)Nc1nccs1)c1ccccc1", "note": "(stereo unspecified)", "Potency": "inconclusive [inhibitor, single point]"},
      {"smiles": "O=Nc1c(O)n(Cc2ccccc2)c2ccccc12", "Potency": "inactive"},
      {"smiles": "CCOc1ccc(N2C(=O)CC(N3CCN(c4ccc([N+](=O)[O-])cc4)CC3)C2=O)cc1", "note": "(stereo unspecified)", "Potency": "inconclusive [inhibitor, single point]"},
      {"smiles": "CN1C(=O)/C(=N/OC(=O)c2ccccc2Br)c2ccccc21", "Potency": "inconclusive [inhibitor, single point]"},
      {"smiles": "O=[N+]([O-])c1ccc(C[n+]2cccc3ccc4cccnc4c32)cc1", "Potency": "inconclusive [inhibitor, single point]"},
      {"smiles": "Cc1cc(O)ccc1Nc1nc(-c2cccs2)cs1", "Potency": "inconclusive [inhibitor, single point]"},
      {"smiles": "COc1ccc(-n2nc(C(=O)c3cccs3)cc(-c3nc4ccccc4[nH]3)c2=N)cc1", "Potency": "active: 3.55 µM"},
      {"smiles": "CCc1ccccc1Nc1nc2ccccc2n1C", "Potency": "inconclusive [inhibitor, single point]"},
      {"smiles": "Cc1cc(C(=O)CSc2nnc(-c3cccc(F)c3)n2N)c(C)n1Cc1ccc2c(c1)OCO2", "Potency": "inconclusive [inhibitor, single point]"},
      {"smiles": "Cc1ccccc1C(=O)Nc1ccc(C(=O)N/N=C/c2ccc(O)c(Br)c2)cc1", "Potency": "inconclusive [inhibitor, single point]"},
      {"smiles": "Cc1ccc2c(CN(C)Cc3ccc(OC(F)F)cc3)cc(=O)oc2c1C", "Potency": "inconclusive [inhibitor, single point]"},
      {"smiles": "Nc1cccnc1Sc1ccc([N+](=O)[O-])cn1", "Potency": "inconclusive [inhibitor, single point]"},
      {"smiles": "O=C(Cn1c(C(=O)N2CCN(C3CCCCC3)CC2)cc2sccc21)c1ccccc1", "Potency": "inactive"},
      {"smiles": "COc1ccc(C2CCCN2C(=S)Nc2ccc(C)cc2C)cc1OC", "note": "(stereo unspecified)", "Potency": "inconclusive [inhibitor, single point]"},
      {"smiles": "Cc1ccc(C(=O)N/N=C2\\SCC(=O)N2c2cc(C)ccc2C)cc1", "Potency": "active: 12.6 µM"},
      {"smiles": "CCc1ccc(NC(=O)N2CCCCCC2)cc1", "Potency": "inconclusive [activator, single point]"},
      {"smiles": "Cc1nc2ccccc2c2c1CC(C(C)(Cl)Br)O2", "note": "(stereo unspecified)", "Potency": "inconclusive [inhibitor, full curve]"},
      {"smiles": "CCCCN=C1NN=C(c2cc3ccccc3o2)CS1", "Potency": "inconclusive [inhibitor, single point]"},
      {"smiles": "O=C(NCC1CC1)[C@H]1C[C@@H]1[C@H](NP(=O)(c1ccccc1)c1ccccc1)c1ccccc1", "Potency": "inactive"},
      {"smiles": "COCCN1Cc2cccc(C(=O)NCc3cccs3)c2C1=O", "Potency": "inactive"},
      {"smiles": "CCc1ccccc1NC(=O)Cn1nnc(-c2cccnc2)n1", "Potency": "inactive"},
      {"smiles": "CSc1ccccc1NC(=O)CO/N=C(\\C)c1cc2ccccc2o1", "Potency": "inconclusive [inhibitor, single point]"},
      {"smiles": "Cc1cc(OC(C)C(=O)N2CCN(c3ccc(F)cc3)CC2)c2c(C)c(C)c(=O)oc2c1", "note": "(stereo unspecified)", "Potency": "inactive"},
      {"smiles": "COc1ccc2c(c1)C(=O)[C@H](OC(=O)NCc1ccco1)[C@@H](c1ccc(OC)c(Br)c1)O2", "Potency": "inactive"},
      {"smiles": "COc1ccccc1-c1cnn2c(NC3CCCC3)cc(C)nc12", "Potency": "inconclusive [activator, single point]"},
      {"smiles": "CCN(CC)CCCN(C(C)=O)c1nc(-c2cc(OC)ccc2OC)cs1", "Potency": "inconclusive [inhibitor, partial curve]"},
      {"smiles": "COc1cccc(N2CCN(C(=O)CCCCCNc3nc(=S)[nH]c4ccccc34)CC2)c1", "Potency": "inconclusive [inhibitor, single point]"},
      {"smiles": "CCC(c1nnc(SCC(=O)Nc2ccc(Cl)cc2C(F)(F)F)n1C1CCCCC1)N(C)C", "note": "(stereo unspecified)", "Potency": "inactive"},
      {"smiles": "NS(=O)(=O)c1ccc(NC2=CC(=O)C(=O)c3ccccc32)cc1", "Potency": "inconclusive [inhibitor, single point]"},
      {"smiles": "Cc1ccc(C(=O)NC(=S)N2CCN(C)CC2)cc1", "Potency": "active: 7.08 µM"},
      {"smiles": "CN(C(=O)C(C)(C)C)c1ccc(OCC(=O)N2CCc3ccccc3C2)cc1", "Potency": "inconclusive [inhibitor, single point]"},
      {"smiles": "CC(=O)N1CCN(Cc2nc3ccc(Cl)cc3n2CCO)CC1", "Potency": "inactive"},
      {"smiles": "COCCn1c(=O)c(CCc2ccccc2)nc2cnc(Oc3ccccc3)nc21", "Potency": "inconclusive [inhibitor, single point]"},
      {"smiles": "COc1ccccc1C1C(C#N)=C(N)Oc2c1c(-c1ccccc1)nn2-c1ccccc1", "note": "(stereo unspecified)", "Potency": "inconclusive [inhibitor, partial curve]"},
      {"smiles": "COc1ccc(/C=N/NC(=S)Nc2cc(S(=O)(=O)N3CCOCC3)ccc2N2CCOCC2)cc1O", "Potency": "inconclusive [inhibitor, single point]"},
      {"smiles": "CC1(C)C[C@@H]2C[C@@](C)(CN2C(=O)c2cc(COc3cccc(C(F)(F)F)c3)on2)C1", "Potency": "inconclusive [inhibitor, single point]"},
      {"smiles": "COc1ccc(CC2(CO)CCN(Cc3nc(C(C)C)cs3)CC2)cc1", "Potency": "inconclusive [inhibitor, single point]"}
    ]}
  ]
}
